Laboratory results taken from the supplement of paper PMC8728848.
Some of the results follow.

Experiments:
Experiment in all cases: glycan array binding signal (z-score within array); higher = stronger binding
Conditions in all cases: glycan notation: IUPAC condensed, linker removed; mutation: R343K
[1] = molecular target: Fuc(a1-2)Gal
Summary of the method: (§1)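 Columns mapping to the same glycan were averaged after glycan names were converted to IUPAC-condensed notation. The data come from 3228 arrays in the Consortium for Functional Glycomics database, limited to those with an available protein sequence. Binding is reported as a within-array Z-score averaged across arrays of one protein sequence and across linkers.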

[2] = molecular target: Fuc(a1-2)Gal(b1-3)GalNAc
Summary of the method: as §1

[3] = molecular target: Fuc(a1-2)Gal(b1-3)GalNAc(b1-3)Gal
Summary of the method: as §1

[4] = molecular target: Fuc(a1-2)Gal(b1-3)GalNAc(b1-3)Gal(a1-4)Gal(b1-4)Glc
Summary of the method: as §1

[5] = molecular target: Fuc(a1-2)Gal(b1-3)GalNAc(b1-4)[Neu5Ac(a2-3)]Gal(b1-4)Glc
Summary of the method: as §1

[6] = molecular target: Fuc(a1-2)Gal(b1-3)GlcNAc
Summary of the method: as §1

[7] = molecular target: Fuc(a1-2)Gal(b1-3)GlcNAc(b1-3)Gal(b1-4)Glc
Summary of the method: as §1

[8] = molecular target: Fuc(a1-2)Gal(b1-3)[Fuc(a1-4)]GlcNAc
Summary of the method: as §1

[9] = molecular target: Fuc(a1-2)Gal(b1-4)Glc
Summary of the method: as §1

[10] = molecular target: Fuc(a1-2)Gal(b1-4)Glc6S
Summary of the method: as §1

[11] = molecular target: Fuc(a1-2)Gal(b1-4)GlcNAc
Summary of the method: as §1

[12] = molecular target: Fuc(a1-2)Gal(b1-4)GlcNAc(b1-3)Gal(b1-4)GlcNAc
Summary of the method: as §1

[13] = molecular target: Fuc(a1-2)Gal(b1-4)GlcNAc(b1-3)Gal(b1-4)GlcNAc(b1-3)Gal(b1-4)GlcNAc
Summary of the method: as §1

[14] = molecular target: Fuc(a1-2)Gal(b1-4)GlcNAc6S
Summary of the method: as §1

[15] = molecular target: Fuc(a1-2)Gal(b1-4)[Fuc(a1-3)]GlcNAc
Summary of the method: as §1

[16] = molecular target: Fuc(a1-2)Gal(b1-4)[Fuc(a1-3)]GlcNAc(b1-3)Gal(b1-4)[Fuc(a1-3)]GlcNAc
Summary of the method: as §1

[17] = molecular target: Fuc(a1-2)Gal(b1-4)[Fuc(a1-3)]GlcNAc(b1-3)Gal(b1-4)[Fuc(a1-3)]GlcNAc(b1-3)Gal(b1-4)[Fuc(a1-3)]GlcNAc
Summary of the method: as §1

[18] = molecular target: Fuc(a1-2)Gal6S(b1-4)Glc
Summary of the method: as §1

[19] = molecular target: Fuc(a1-2)Gal6S(b1-4)Glc6S
Summary of the method: as §1

[20] = molecular target: Fuc(a1-2)Gal6S(b1-4)GlcNAc
Summary of the method: as §1

[21] = molecular target: Fuc(a1-2)[Gal(a1-3)]Gal
Summary of the method: as §1

[22] = molecular target: Fuc(a1-2)[Gal(a1-3)]Gal(b1-3)GlcNAc
Summary of the method: as §1

[23] = molecular target: Fuc(a1-2)[Gal(a1-3)]Gal(b1-4)Glc
Summary of the method: as §1

[24] = molecular target: Fuc(a1-2)[Gal(a1-3)]Gal(b1-4)GlcNAc
Summary of the method: as §1

[25] = molecular target: Fuc(a1-2)[Gal(a1-3)]Gal(b1-4)[Fuc(a1-3)]GlcNAc
Summary of the method: as §1

[26] = molecular target: Fuc(a1-2)[Gal(a1-4)]Gal(b1-4)GlcNAc
Summary of the method: as §1

[27] = molecular target: Fuc(a1-2)[GalNAc(a1-3)]Gal
Summary of the method: as §1

[28] = molecular target: Fuc(a1-2)[GalNAc(a1-3)]Gal(b1-3)GlcNAc
Summary of the method: as §1

[29] = molecular target: Fuc(a1-2)[GalNAc(a1-3)]Gal(b1-4)Glc
Summary of the method: as §1

[30] = molecular target: Fuc(a1-2)[GalNAc(a1-3)]Gal(b1-4)GlcNAc
Summary of the method: as §1

[31] = molecular target: Fuc(a1-2)[GalNAc(a1-3)]Gal(b1-4)[Fuc(a1-3)]GlcNAc
Summary of the method: as §1

[32] = molecular target: Fuc(a1-2)[GalNAc(a1-4)]Gal(b1-4)GlcNAc
Summary of the method: as §1

[33] = molecular target: Fuc(a1-2)[GalNAc(b1-3)]Gal
Summary of the method: as §1

[34] = molecular target: Fuc(a1-3)GlcNAc
Summary of the method: as §1

[35] = molecular target: Fuc(a1-3)[Gal(b1-4)]Glc6S
Summary of the method: as §1

[36] = molecular target: Fuc(a1-3)[Gal(b1-4)]GlcNAc
Summary of the method: as §1

[37] = molecular target: Fuc(a1-3)[Gal(b1-4)]GlcNAc(b1-2)Man(a1-3)[Fuc(a1-3)[Gal(b1-4)]GlcNAc(b1-2)Man(a1-6)]Man(b1-4)GlcNAc(b1-4)GlcNAc
Summary of the method: as §1

[38] = molecular target: Fuc(a1-3)[Gal(b1-4)]GlcNAc(b1-2)Man(a1-6)[Gal(b1-4)GlcNAc(b1-2)Man(a1-3)]Man(b1-4)GlcNAc(b1-4)GlcNAc
Summary of the method: as §1

[39] = molecular target: Fuc(a1-3)[Gal(b1-4)]GlcNAc(b1-3)Gal(b1-3)[Fuc(a1-4)]GlcNAc
Summary of the method: as §1

[40] = molecular target: Fuc(a1-3)[Gal(b1-4)]GlcNAc(b1-4)Gal(b1-4)[Fuc(a1-3)]GlcNAc
Summary of the method: as §1

[41] = molecular target: Fuc(a1-3)[Gal(b1-4)]GlcNAc(b1-4)Gal(b1-4)[Fuc(a1-3)]GlcNAc(b1-4)Gal(b1-4)[Fuc(a1-3)]GlcNAc
Summary of the method: as §1

[42] = molecular target: Fuc(a1-3)[Gal(b1-4)]GlcNAc6S
Summary of the method: as §1

[43] = molecular target: Fuc(a1-3)[Gal3S(b1-4)]Glc6S
Summary of the method: as §1

[44] = molecular target: Fuc(a1-3)[Gal3S(b1-4)]GlcNAc
Summary of the method: as §1

[45] = molecular target: Fuc(a1-3)[Gal3S(b1-4)]GlcNAc6S
Summary of the method: as §1

[46] = molecular target: Fuc(a1-3)[GalNAc(b1-4)]GlcNAc
Summary of the method: as §1

[47] = molecular target: Fuc(a1-4)GlcNAc
Summary of the method: as §1

[48] = molecular target: Fuc(b1-3)GlcNAc
Summary of the method: as §1

[49] = molecular target: Gal(a1-2)Gal
Summary of the method: as §1

[50] = molecular target: Gal(a1-3)Gal
Summary of the method: as §1

[51] = molecular target: Gal(a1-3)Gal(b1-3)GlcNAc
Summary of the method: as §1

[52] = molecular target: Gal(a1-3)Gal(b1-4)Glc
Summary of the method: as §1

[53] = molecular target: Gal(a1-3)Gal(b1-4)GlcNAc
Summary of the method: as §1

[54] = molecular target: Gal(a1-3)Gal(b1-4)[Fuc(a1-3)]GlcNAc
Summary of the method: as §1

[55] = molecular target: Gal(a1-3)GalNAc
Summary of the method: as §1

[56] = molecular target: Gal(a1-3)[Gal(a1-4)]Gal(b1-4)GlcNAc
Summary of the method: as §1

[57] = molecular target: Gal(a1-4)Gal(b1-4)Glc
Summary of the method: as §1

[58] = molecular target: Gal(a1-4)Gal(b1-4)GlcNAc
Summary of the method: as §1

[59] = molecular target: Gal(a1-4)GlcNAc
Summary of the method: as §1

[60] = molecular target: Gal(a1-6)Glc
Summary of the method: as §1

[61] = molecular target: Gal(b1-2)Gal
Summary of the method: as §1

[62] = molecular target: Gal(b1-3)Gal
Summary of the method: as §1

[63] = molecular target: Gal(b1-3)Gal(b1-4)GlcNAc
Summary of the method: as §1

[64] = molecular target: Gal(b1-3)GalNAc
Summary of the method: as §1

[65] = molecular target: Gal(b1-3)GalNAc(b1-3)Gal(a1-4)Gal(b1-4)Glc
Summary of the method: as §1

[66] = molecular target: Gal(b1-3)GalNAc(b1-4)Gal(b1-4)Glc
Summary of the method: as §1

[67] = molecular target: Gal(b1-3)GalNAc(b1-4)[Neu5Ac(a2-3)]Gal(b1-4)Glc
Summary of the method: as §1

[68] = molecular target: Gal(b1-3)GlcNAc
Summary of the method: as §1

[69] = molecular target: Gal(b1-3)GlcNAc(b1-2)Man(a1-3)[Gal(b1-3)GlcNAc(b1-2)Man(a1-6)]Man(b1-4)GlcNAc(b1-4)GlcNAc
Summary of the method: as §1

[70] = molecular target: Gal(b1-3)GlcNAc(b1-3)Gal(b1-3)GlcNAc
Summary of the method: as §1

[71] = molecular target: Gal(b1-3)GlcNAc(b1-3)Gal(b1-4)Glc
Summary of the method: as §1

[72] = molecular target: Gal(b1-3)GlcNAc(b1-3)Gal(b1-4)GlcNAc
Summary of the method: as §1

[73] = molecular target: Gal(b1-3)[Fuc(a1-4)]GlcNAc
Summary of the method: as §1

[74] = molecular target: Gal(b1-3)[Fuc(a1-4)]GlcNAc(b1-3)Gal(b1-3)[Fuc(a1-4)]GlcNAc
Summary of the method: as §1

[75] = molecular target: Gal(b1-3)[Fuc(a1-4)]GlcNAc(b1-3)Gal(b1-4)GlcNAc
Summary of the method: as §1

Measured: glycan array binding signal (z-score)

B1: Surfactant Protein D (Human); Neck + Carbohydrate Recognition Domain (NCRD) (Homo sapiens) (protein)
chain: MLLFLLSALVLLTQPLGYLEAEMKTYSHRTMPSACTLVMCSSVESGLPGRDRDGREGPRGEKGDPGLPGAAGQAGMPGQAGPVGPKGDNGSVGEPGPKGDTGPSGPPGPPGVPGPAGREGALGKQGNIGPQGKPGPKGEAGPKGEVGAPGMQGSAGARGLAGPKGERGVPGERGVPGNTGAAGSAGAMGPQGSPGARGPPGLKGDKGIPGDKGAKGESGLPDVASLRQQVEALQGQVQHLQAAFSQYKKVELFPNGQSVGEKIFKTAQFVKPFTEAQLLCTQAGGQLASPRSAAENAALQQLVVAKNEAAFLSMTDSKTEGKFTYPTGESLVYSNWAPGEPNDDGGSEDCVEIFTNGKWNDKACGEKRLVVCEF
-0.145: [33]
-0.149: [24] | [32] | [49] | [50] | [55]
-0.157: [23] | [40] | [51] | [71]
-0.142: [45]
-0.153: [2] | [10] | [30] | [36] | [57] | [72]
-0.148: [37] | [39] | [70]
-0.133: [17]
-0.138: [21]
-0.144: [42]
-0.143: [13] | [27] | [47]
-0.14: [56] | [59] | [75]
-0.154: [4] | [8] | [16] | [31] | [34] | [35] | [48] | [53] | [58] | [73]
-0.147: [1] | [25] | [38] | [65] | [67] | [68]
-0.15: [5]
-0.152: [7] | [9] | [22] | [26] | [44] | [64] | [66] | [69] | [74]
-0.151: [6] | [11] | [15] | [28] | [46] | [52] | [60]
-0.155: [19] | [20] | [41] | [61]
-0.146: [3] | [29] | [54] | [63]
-0.135: [43]
-0.156: [12] | [14] | [18] | [62]
